Experimental data reported in the supplement of paper PMC12217912.
The list shows a part of the results. The full chains were built here from the parent and the listed change. Inactive controls read about 0.05.

B1: TEV protease; numbered along this chain (parent)
chain: MGESLFKGPRDYNPISSSICHLTNESDGHTTSLYGIGFGPFIITNKHLFRRNNGTLVVQSLHGVFKVKDTTTLQQHLVDGRDMIIIRMPKDFPPFPQKLKFREPQREERICLVTTNFQTKSMSSMVSDTSCTFPSGDGIFWKHWIQTKDGQCGSPLVSTRDGFIVGIHSASNFTNTNNYFTSVPKNFMELLTNQEAQQWVSGWRLNADSVLWGGHKVFMVKPEEPFQPVKEATQL

Variants of: B1
Assay: raw area under fraction-flipped curve 0-4 h after induction (AUC4h, not background-subtracted), DNA-recorder readout of cleavage of the substrate (dimensionless); higher = more cleavage of the substrate by the protease variant
Details: temperature: 34 °C; time window: 0-4 h after rhamnose induction
Method: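 In vivo DNA recorder in E. coli TOP10(DE3) ΔrhaA at 34 °C. Each TEVp single-site mutant (parent TEVp 0) is paired with a single-site variant of the 7-mer TEVs (canonical ENLYFQ|S). The substrate sits between flexible linkers in a Bxb1-sfGFP-TEVs-SsrA fusion, so cleavage stabilises Bxb1 and speeds flipping of a recombination array, read by NGS. The value is the raw area under the fraction-flipped curve over 0-4 h after rhamnose induction (AUC4h), with ≥20 reads per time point. It is not background-subtracted; inactive controls average about 0.047.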
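Also: Bxb1 expression induced with 0.2% (w/v) L-rhamnose at OD600 near 0.5, cultures sampled hourly, flipped fraction per protease–substrate barcode pair counted by paired-end Illumina sequencing.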

Variant | area with substrate ENLYCQS | area with substrate ENLYEQS | area with substrate ENLYGQS | area with substrate ENLYHQS | area with substrate ENLYKQS | area with substrate ENLYMQS | area with substrate ENLYNQS | area with substrate ENLYWQS | area with substrate ENLYYQS | area with substrate ENLYDQS | area with substrate ENLYIQS | area with substrate ENLYQQS | area with substrate ENLYLQS | area with substrate ENLYRQS | area with substrate ENLYSQS | area with substrate ENLYTQS | area with substrate ENLYVQS | area with substrate ENLYPQS
MGESLFKGPRDYNPISSSICHLTNESDGHTTSLYGIGFGPFIITNKHLFRRNNGTLVVQSLHGVFKVKDTTTLQQHLVDGRDMIIGRMPKDFPPFPQKLKFREPQREERICLVTTNFQTKSMSSMVSDTSCTFPSGDGIFWKHWIQTKDGQCGSPLVSTRDGFIVGIHSASNFTNTNNYFTSVPKNFMELLTNQEAQQWVSGWRLNADSVLWGGHKVFMVKPEEPFQPVKEATQL [I86G] | 0.0454 | 0.0394 | 0.0528 | 0.0435 | 0.0339 | 0.0215 | 0.0433 | 0.0147 | 0.0282 | – | – | – | – | – | – | – | – | –
MGESLFKGPRDYNPISSSICHLTNESDGHTTSLYGIGFGPFIITNKHLFRRNNGTLVVQSLHGVFKVKDTTTLQQHLVDGRDMIIIGMPKDFPPFPQKLKFREPQREERICLVTTNFQTKSMSSMVSDTSCTFPSGDGIFWKHWIQTKDGQCGSPLVSTRDGFIVGIHSASNFTNTNNYFTSVPKNFMELLTNQEAQQWVSGWRLNADSVLWGGHKVFMVKPEEPFQPVKEATQL [R87G] | 0.067 | – | – | 0.0504 | – | – | 0.0592 | – | – | 0.0654 | 0.101 | 0.0826 | – | – | – | – | – | –
MGESLFKGPRDYNPISSSICHLTNESDGHTTSLYGIGFGPFIITNKHLFRRNNGTLVVQSLHGVFKVKDTTTLQQHLVDGRDMIIIRMPKDFPPFPQKLKTREPQREERICLVTTNFQTKSMSSMVSDTSCTFPSGDGIFWKHWIQTKDGQCGSPLVSTRDGFIVGIHSASNFTNTNNYFTSVPKNFMELLTNQEAQQWVSGWRLNADSVLWGGHKVFMVKPEEPFQPVKEATQL [F101T] | 0.0639 | – | – | 0.058 | – | 0.0423 | 0.0558 | 0.048 | 0.0551 | 0.0395 | – | 0.0585 | 0.0671 | 0.0807 | 0.0505 | 0.0538 | 0.0639 | –
MGESLFKGPRDYNPISSSICHLTNESDGHTTSLYGIGFGPFIITNKHLFRRNNGTLVVQSLHGVFKVKDTTTLQQHLVDGRDMIIIRMPKDFPPFPQKLKFREPQLEERICLVTTNFQTKSMSSMVSDTSCTFPSGDGIFWKHWIQTKDGQCGSPLVSTRDGFIVGIHSASNFTNTNNYFTSVPKNFMELLTNQEAQQWVSGWRLNADSVLWGGHKVFMVKPEEPFQPVKEATQL [R106L] | 0.133 | 0.0606 | 0.0647 | 0.121 | 0.0431 | 0.104 | 0.0696 | 0.0608 | – | 0.0607 | 0.152 | – | 0.101 | – | 0.0824 | 0.0657 | – | –
MGESLFKGPRDYNPISSSICHLTNESDGHTTSLYGIGFGPFIITNKHLFRRNNGTLVVQSLHGVFKVKDTTTLQQHLVDGRDMIIIRMPKDFPPFPQKLKFREPQREERCCLVTTNFQTKSMSSMVSDTSCTFPSGDGIFWKHWIQTKDGQCGSPLVSTRDGFIVGIHSASNFTNTNNYFTSVPKNFMELLTNQEAQQWVSGWRLNADSVLWGGHKVFMVKPEEPFQPVKEATQL [I110C] | 0.0842 | 0.0665 | 0.056 | 0.0646 | 0.0589 | 0.085 | 0.07 | 0.0666 | 0.0655 | 0.0639 | 0.138 | 0.0661 | – | 0.065 | 0.0618 | 0.0995 | 0.0962 | 0.074
MGESLFKGPRDYNPISSSICHLTNESDGHTTSLYGIGFGPFIITNKHLFRRNNGTLVVQSLHGVFKVKDTTTLQQHLVDGRDMIIIRMPKDFPPFPQKLKFREPQREERICLVTTNFQTMSMSSMVSDTSCTFPSGDGIFWKHWIQTKDGQCGSPLVSTRDGFIVGIHSASNFTNTNNYFTSVPKNFMELLTNQEAQQWVSGWRLNADSVLWGGHKVFMVKPEEPFQPVKEATQL [K120M] | 0.0939 | 0.0666 | – | – | 0.0596 | 0.101 | – | – | – | 0.0626 | 0.115 | – | – | 0.072 | 0.0973 | – | 0.124 | 0.083
MGESLFKGPRDYNPISSSICHLTNESDGHTTSLYGIGFGPFIITNKHLFRRNNGTLVVQSLHGVFKVKDTTTLQQHLVDGRDMIIIRMPKDFPPFPQKLKFREPQREERICLVTTNFQTKSGSSMVSDTSCTFPSGDGIFWKHWIQTKDGQCGSPLVSTRDGFIVGIHSASNFTNTNNYFTSVPKNFMELLTNQEAQQWVSGWRLNADSVLWGGHKVFMVKPEEPFQPVKEATQL [M122G] | 0.0967 | – | 0.0722 | 0.0525 | 0.0226 | – | 0.0769 | – | – | – | – | – | – | 0.068 | – | – | 0.0888 | –
MGESLFKGPRDYNPISSSICHLTNESDGHTTSLYGIGFGPFIITNKHLFRRNNGTLVVQSLHGVFKVKDTTTLQQHLVDGRDMIIIRMPKDFPPFPQKLKFREPQREERICLVTTNFQTKSSSSMVSDTSCTFPSGDGIFWKHWIQTKDGQCGSPLVSTRDGFIVGIHSASNFTNTNNYFTSVPKNFMELLTNQEAQQWVSGWRLNADSVLWGGHKVFMVKPEEPFQPVKEATQL [M122S] | 0.0754 | 0.0655 | – | 0.0702 | – | 0.0768 | 0.066 | 0.0924 | – | – | – | – | 0.0629 | – | 0.0957 | 0.0554 | – | –
MGESLFKGPRDYNPISSSICHLTNESDGHTTSLYGIGFGPFIITNKHLFRRNNGTLVVQSLHGVFKVKDTTTLQQHLVDGRDMIIIRMPKDFPPFPQKLKFREPQREERICLVTTNFQTKSMSSMVSDYSCTFPSGDGIFWKHWIQTKDGQCGSPLVSTRDGFIVGIHSASNFTNTNNYFTSVPKNFMELLTNQEAQQWVSGWRLNADSVLWGGHKVFMVKPEEPFQPVKEATQL [T129Y] | 0.0795 | 0.0698 | 0.0753 | – | – | – | 0.0604 | – | – | 0.0746 | 0.11 | – | 0.0693 | 0.0685 | 0.0429 | 0.057 | 0.112 | –
MGESLFKGPRDYNPISSSICHLTNESDGHTTSLYGIGFGPFIITNKHLFRRNNGTLVVQSLHGVFKVKDTTTLQQHLVDGRDMIIIRMPKDFPPFPQKLKFREPQREERICLVTTNFQTKSMSSMVSDTLCTFPSGDGIFWKHWIQTKDGQCGSPLVSTRDGFIVGIHSASNFTNTNNYFTSVPKNFMELLTNQEAQQWVSGWRLNADSVLWGGHKVFMVKPEEPFQPVKEATQL [S130L] | 0.0734 | 0.0535 | 0.0709 | – | 0.0248 | – | 0.0624 | – | 0.0607 | 0.0515 | 0.0972 | – | 0.0667 | – | – | 0.0712 | – | 0.0695
